From PubChem BioAssay AID504832 (National Center for Advancing Translational Sciences (NCATS), 2011)
The whole screen tested about 310,000 compounds, of which about 18,000 (5.8%) were called active. This list was built around the results that the source calls inconclusive (neither active nor inactive); the mix of calls is not that of the screen. Calls come from the whole dose curve; as a rule, active = well fitted inhibition curve with a large enough effect; inconclusive = small, poorly fitted or top-dose-only effect, or another doubt; inactive = no such curve, though single readings can be large or run the other way. Potencies of inconclusive entries are left out as doubtful fits.

Experiment: Primary qHTS for delayed death inhibitors of the malarial parasite plastid, 48 hour incubation
Details: P. falciparum luciferase growth in erythrocytes; series mostly up to 28.7 µM
Procedure, shortened: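 Luciferase-expressing parasites in RBCs, 2% Hct / 0.1% parasitemia final; RPMI 1640 + 0.5% Albumax; 37 C, 5% CO2, one generation; luminescence read-out, lower signal = inhibition.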
Potency is the fitted concentration of half-maximal effect; tags give direction and shape of the fitted curve.

SMILES	Potency
COc1ccc(NC(=O)c2cccc(Cn3cc(Br)c([N+](=O)[O-])n3)c2)c(C)c1	inconclusive [inhibitor, single point]
COc1ccc(/C=C(\NC(=O)c2ccccc2)C(=O)N2CCN(C)CC2)cc1OC	inconclusive [inhibitor, single point]
Cc1cc(NC(=O)CCN2C(=O)/C(=C/c3ccccc3Cl)SC2=S)no1	inactive
O=C(CCn1nnc2ccccc21)N1CCC(O)(c2cccc(F)c2)CC1	inactive
O=C(c1cnc2c(c1)COc1ccc(Cl)cc1-2)c1ccccc1O	inconclusive [inhibitor, single point]
COc1ccc(SCC(=O)Nc2ccc(N3CCN(C)CC3)c(F)c2)cc1	inconclusive [inhibitor, partial curve, poor fit]
COc1ccc(NC(=O)CCSc2ccc3ccccc3n2)cc1	inactive
Cc1ccc(OCCCCN2CCC(C)CC2)c(Br)c1	inconclusive [inhibitor, single point]
O=[N+]([O-])/C=C/c1cn(Cc2ccc(F)cc2)c2ccccc12	inconclusive [inhibitor, full curve]
CCOC(=O)N1CCN(C(=O)CSc2nc3ccccc3c(=O)n2-c2ccccc2)CC1	inconclusive [inhibitor, partial curve]
Cc1cccc(OCCNc2cc(N3CCN(CCO)CC3)ccc2[N+](=O)[O-])c1	inconclusive [inhibitor, single point]
CC1CCc2sc(C(=O)N3CCC(C(N)=O)CC3)cc2C1 (stereo unspecified)	inactive
CC(=O)N[C@@H](Cc1c[nH]c2ccccc12)C(=O)OCc1ccc(C#N)cc1	inactive
COc1ccc(OC)c(CN2CCN(C(=O)CNC(=O)c3cc(C)cc(C)c3)CC2)c1	inconclusive [inhibitor, single point]
COc1ccc(N2CCN(C(=O)CCCCCn3c(=S)[nH]c4cc5c(cc4c3=O)OCO5)CC2)cc1	inconclusive [inhibitor, partial curve]
Clc1ccc(CSC(Cn2ccnc2)c2ccc(Cl)cc2Cl)cc1 (stereo unspecified)	active: 2.08 µM
O=C(Nc1ccccn1)C1CCN(S(=O)(=O)c2ccc3c(c2)OCCO3)CC1	inactive
Cc1sc2nc(COC(=O)c3ccc(O)cc3)[nH]c(=O)c2c1C	inconclusive [inhibitor, single point]
O=c1cc(-c2ccccc2)nc(/C=C/c2ccccc2)[nH]1	inconclusive [inhibitor, partial curve, poor fit]
Cc1ccc(S(=O)(=O)N2CCN(C(=O)c3c(C)nn(-c4ccccc4)c3Cl)CC2)cc1	inconclusive [inhibitor, single point]
Cc1cccc(-n2c(SCC(=O)NC3CCCC3)nnc2-c2ccoc2C)c1	active: 13.1 µM
Cc1ccc(C(=O)C[n+]2cccc3ccccc32)cc1	active: 13.1 µM
CC(C)[C@H](CN(N=O)[C@@H](Cc1ccccc1)CN(C)N=O)N(CCc1ccccc1)N=O	inconclusive [inhibitor, partial curve, poor fit]

SMILES	Potency
Nc1nnc(SCc2ccc(F)cc2)s1	inactive
Cc1cc(C)nc(NS(=O)(=O)c2ccc(CC(C)C)cc2)c1	inconclusive [inhibitor, single point]
N#Cc1c(N)nc(SCC(=O)OCc2ccccc2)c(C#N)c1-c1ccco1	inconclusive [inhibitor, single point]
C=CCN1C(=O)/C(=C/c2cc(C)n(-c3cccnc3)c2C)C(=O)NC1=S	inactive
O=C(CCc1nnc(COc2ccccc2)o1)NCc1ccccc1C(F)(F)F	inactive
NC(=O)C1CCN(C(=O)c2ccc(Oc3cc(Cl)cc(Cl)c3)o2)CC1	inconclusive [inhibitor, partial curve, poor fit]
O=C(Nc1ccc(C(=O)N2CCCC2)cc1)Nc1ccc(Cl)cc1Cl	inactive
O=C(/C=C/c1cccc([N+](=O)[O-])c1)NC(=S)Nc1ccc(CN2CCOCC2)cc1	inactive
O=C1c2ccccc2C(Nc2ccc(F)c(Cl)c2)N1Cc1ccco1 (stereo unspecified)	inconclusive [inhibitor, single point]
Cc1ccc2c(CC(=O)NNC(=O)c3ccncc3)coc2c1	inactive
Cc1sc(NC(=O)CN(Cc2ccc(F)cc2)C(=O)C(C)(C)C)c(C(N)=O)c1C	inactive
COc1ccc(-c2nc(CN3CCN(c4ncnc5ccccc45)CC3)c(C)o2)c(OC)c1	inconclusive [inhibitor, partial curve]
O=C(CCC(=O)N1CCOc2ccccc21)NCCN1CCOCC1	inactive
COc1ccc(N=Cc2c(O)n(C)c(=O)n(C)c2=O)cc1	inactive
O=C1CCCN1c1ccc(C(=O)N(Cc2nnc(-c3ccccc3Cl)o2)C2CC2)cc1	inconclusive [inhibitor, partial curve, poor fit]
COc1ccc(-c2cc(C(=O)N3CCC3)c3ccccc3n2)cc1OC	inconclusive [inhibitor, single point]
CCN(CC(=O)Nc1c(F)cccc1F)C(=O)c1nn(C)c(=O)c2ccccc12	inactive
CC(=O)N1N=C(c2c(-c3ccccc3)c3cc(C)ccc3[nH]c2=O)CC1c1ccco1 (stereo unspecified)	active: 14.7 µM
Cc1cn([C@H](C(=O)NCCCCCCCCCCC(=O)N2CCNCC2)[C@@H](C)O)nn1	inactive
CCCCCCC1CC(CCC(=O)Nc2ccc([N+](=O)[O-])cc2)C(=O)O1 (stereo unspecified)	inconclusive [inhibitor, partial curve]
C[C@@]12C(=O)N(c3cccc(Cl)c3)C(=O)N1[C@H](c1ccc(Cl)cc1)[C@@H]1C(=O)N(C3CCCCC3)C(=O)[C@@H]12	inconclusive [inhibitor, single point]
C/C(N)=C(/C#N)C(=O)CSc1cc(Cl)ccc1Cl	inactive
Cc1nc2ccccc2c2oc(C(=O)N3CCN(c4ccc([N+](=O)[O-])cc4)CC3)cc12	inactive
